The target in the assay is recombinant full-length wild-type human tau isoform 0N4R (human) (UniProt P10636). The experiment in a line: thioflavin T fluorescence aggregation kinetics; self-aggregation of recombinant tau alone; 30 uM tau, 60 ug/ml heparin, 10 uM ThT, 20 mM Tris pH 7.4, 37°C; t1/2 = time to half maximum ThT intensity.

Regarding “recombinant full-length wild-type human tau isoform 0N4R (a stretch of the chain, letters omitted) (natural protein; other documents disagree on this pair)”, the t1/2 of self-aggregation (ThT fluorescence) was 14.7 h.

The values are drawn from PMC9352240.
